The BET-seq Pho4 binding data (Le et al. 2018)
This is one part of the list. Values were computed here from the reads of four pooled replicates and scatter widely.

Each sequence was assayed against T1, Pho4 (S. cerevisiae) (UniProt P07270) (assay: relative binding free energy (BET-seq); higher = weaker binding). Conditions: reference: library average.
T1 sequence: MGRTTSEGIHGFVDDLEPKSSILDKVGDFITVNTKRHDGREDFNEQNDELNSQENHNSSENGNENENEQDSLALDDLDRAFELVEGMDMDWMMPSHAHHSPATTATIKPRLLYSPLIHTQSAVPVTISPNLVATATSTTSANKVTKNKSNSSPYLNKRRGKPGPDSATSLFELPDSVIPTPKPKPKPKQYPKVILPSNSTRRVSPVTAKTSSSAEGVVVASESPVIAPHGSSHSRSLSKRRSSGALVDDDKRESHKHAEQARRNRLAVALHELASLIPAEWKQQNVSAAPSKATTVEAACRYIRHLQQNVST
With TTTGGCACGTGTTTCT the “relative binding free energy” value was 0.06 kcal/mol.
With TAGCACACGTGGATGG the “relative binding free energy” value was 0.05 kcal/mol.
In the case of GGAGGCACGTGAGGCT, the “relative binding free energy” value was 0.17 kcal/mol.
In the case of CGTAGCACGTGTGGTG, the “relative binding free energy” value was 0.01 kcal/mol.
In the case of ACAGGCACGTGGTTGG, the “relative binding free energy” value was -0.22 kcal/mol.
With CCTGGCACGTGTGGGA the “relative binding free energy” value was -0.13 kcal/mol.
GTAGTCACGTGTTCGT was tested, and the “relative binding free energy” value was -0.01 kcal/mol.
In the case of TGATTCACGTGGGATG, the “relative binding free energy” value was 0.17 kcal/mol.
In the case of GGATTCACGTGCGCGG, the “relative binding free energy” value was 0.14 kcal/mol.
In the case of TAGTGCACGTGTATTC, the “relative binding free energy” value was 0.06 kcal/mol.
With GATGTCACGTGTGCAT the “relative binding free energy” value was 0.1 kcal/mol.
In the case of TACGGCACGTGGCTGG, the “relative binding free energy” value was -0.08 kcal/mol.
In the case of TGTGACACGTGTAAGA, the “relative binding free energy” value was 0.22 kcal/mol.
For TGGGCCACGTGTAGAG, the “relative binding free energy” value was 0.11 kcal/mol.
For ATTAGCACGTGTGCTT, the “relative binding free energy” value was -0.06 kcal/mol.
In the case of GGAGCCACGTGGGCGG, the “relative binding free energy” value was -0.27 kcal/mol.
For CGGTTCACGTGGTAAA, the “relative binding free energy” value was 0.25 kcal/mol.
For TGAGGCACGTGTTGGC, the “relative binding free energy” value was -0.12 kcal/mol.
GTTGTCACGTGAGTCT was tested, and the “relative binding free energy” value was 0.17 kcal/mol.
For GTGGGCACGTGCTTGG, the “relative binding free energy” value was -0.01 kcal/mol.
In the case of TAATGCACGTGAGGGT, the “relative binding free energy” value was 0.17 kcal/mol.
In the case of ATTATCACGTGTATAA, the “relative binding free energy” value was 0.15 kcal/mol.
In the case of CTAGTCACGTGTGGCT, the “relative binding free energy” value was 0.09 kcal/mol.
In the case of AGGGCCACGTGACGGT, the “relative binding free energy” value was 0.02 kcal/mol.
With ATTATCACGTGTGCTG the “relative binding free energy” value was 0.24 kcal/mol.
With TTAATCACGTGGTCGA the “relative binding free energy” value was -0.01 kcal/mol.
GGGAGCACGTGTGCTT was tested, and the “relative binding free energy” value was -0.02 kcal/mol.
For GAAGGCACGTGTGTCT, the “relative binding free energy” value was -0.05 kcal/mol.
GGGGTCACGTGGGAAC was tested, and the “relative binding free energy” value was 0.14 kcal/mol.
AAGTACACGTGTGGCT was tested, and the “relative binding free energy” value was 0.17 kcal/mol.
With TGCTGCACGTGCGGGG the “relative binding free energy” value was -0.07 kcal/mol.
TAGGACACGTGGTGCG was tested, and the “relative binding free energy” value was -0.21 kcal/mol.
GGAGACACGTGTGGTC was tested, and the “relative binding free energy” value was 0.08 kcal/mol.
TGAGGCACGTGCAGGT was tested, and the “relative binding free energy” value was -0.13 kcal/mol.
In the case of GTGGTCACGTGTTCAC, the “relative binding free energy” value was 0.21 kcal/mol.
For TGGCTCACGTGGTAGG, the “relative binding free energy” value was 0.22 kcal/mol.
In the case of ATGGGCACGTGATGTG, the “relative binding free energy” value was 0.09 kcal/mol.
In the case of AGTCGCACGTGTTGTG, the “relative binding free energy” value was 0.01 kcal/mol.
In the case of AGTTTCACGTGCCGTG, the “relative binding free energy” value was 0.28 kcal/mol.
With TTCTTCACGTGTTGGG the “relative binding free energy” value was 0.33 kcal/mol.
In the case of GCTATCACGTGGTTAG, the “relative binding free energy” value was 0.21 kcal/mol.
AGCTACACGTGGGGCG was tested, and the “relative binding free energy” value was -0.01 kcal/mol.
In the case of GTGGGCACGTGTCTAT, the “relative binding free energy” value was -0.08 kcal/mol.
In the case of AGGAGCACGTGTTTCG, the “relative binding free energy” value was -0.08 kcal/mol.
With GTGAACACGTGAGTAG the “relative binding free energy” value was 0.37 kcal/mol.
TCTTGCACGTGGGCGT was tested, and the “relative binding free energy” value was -0.07 kcal/mol.
For TATATCACGTGGGGAA, the “relative binding free energy” value was 0.07 kcal/mol.
GTTGACACGTGAGGTG was tested, and the “relative binding free energy” value was 0.23 kcal/mol.
TGGGTCACGTGTGAAA was tested, and the “relative binding free energy” value was 0.1 kcal/mol.
In the case of GATGTCACGTGGAGCG, the “relative binding free energy” value was 0.27 kcal/mol.
For GCGTTCACGTGCGTTT, the “relative binding free energy” value was 0.38 kcal/mol.
For TGCAGCACGTGGAGCG, the “relative binding free energy” value was -0.13 kcal/mol.
In the case of CTTTACACGTGTATTT, the “relative binding free energy” value was 0.23 kcal/mol.
With GGTTTCACGTGGAAGG the “relative binding free energy” value was 0.39 kcal/mol.
For TTGTACACGTGGTAGT, the “relative binding free energy” value was 0.02 kcal/mol.
AGTTCCACGTGTCAGG was tested, and the “relative binding free energy” value was 0.18 kcal/mol.
GGGTTCACGTGTCTGC was tested, and the “relative binding free energy” value was 0.24 kcal/mol.
GGTATCACGTGGGAGA was tested, and the “relative binding free energy” value was 0.12 kcal/mol.
With AGGGACACGTGGCCTG the “relative binding free energy” value was -0.12 kcal/mol.
With TCGGGCACGTGAGAGT the “relative binding free energy” value was 0.19 kcal/mol.
With CTGGTCACGTGAGAGG the “relative binding free energy” value was 0.32 kcal/mol.
With TTTGTCACGTGGGAAC the “relative binding free energy” value was -0.08 kcal/mol.
In the case of CGCTTCACGTGTTTGT, the “relative binding free energy” value was 0.19 kcal/mol.
With ATACGCACGTGTTTGG the “relative binding free energy” value was -0.19 kcal/mol.
In the case of TTAGGCACGTGAGAAA, the “relative binding free energy” value was 0.19 kcal/mol.
With TCGGACACGTGCGGTT the “relative binding free energy” value was 0.03 kcal/mol.
In the case of TTAGGCACGTGTAACG, the “relative binding free energy” value was -0.1 kcal/mol.
In the case of TATAGCACGTGTTGCA, the “relative binding free energy” value was 0 kcal/mol.
In the case of TAGATCACGTGTTAGT, the “relative binding free energy” value was 0.13 kcal/mol.
For AGTAACACGTGTTGAG, the “relative binding free energy” value was 0.13 kcal/mol.
In the case of ATACGCACGTGGTATG, the “relative binding free energy” value was -0.15 kcal/mol.
CTAGGCACGTGATATG was tested, and the “relative binding free energy” value was -0.07 kcal/mol.
For ATATGCACGTGTACTG, the “relative binding free energy” value was 0.01 kcal/mol.
For CAAGGCACGTGGTGGA, the “relative binding free energy” value was -0.27 kcal/mol.
For TAATTCACGTGGGGAC, the “relative binding free energy” value was 0.09 kcal/mol.
CTGGTCACGTGGCTGG was tested, and the “relative binding free energy” value was -0.1 kcal/mol.
ATCGGCACGTGGGTCA was tested, and the “relative binding free energy” value was -0.2 kcal/mol.
For ATTTACACGTGGGTGT, the “relative binding free energy” value was -0.07 kcal/mol.
In the case of GAATGCACGTGAGTTG, the “relative binding free energy” value was 0.18 kcal/mol.
For TACTGCACGTGGTCGG, the “relative binding free energy” value was -0.13 kcal/mol.
For GCATGCACGTGTGTTG, the “relative binding free energy” value was -0.06 kcal/mol.
In the case of TGGAGCACGTGCAGTA, the “relative binding free energy” value was -0.13 kcal/mol.
GTTAGCACGTGTGGCA was tested, and the “relative binding free energy” value was 0.06 kcal/mol.
With TAAAGCACGTGGGTGG the “relative binding free energy” value was -0.13 kcal/mol.
AAAGGCACGTGATTGA was tested, and the “relative binding free energy” value was 0.05 kcal/mol.
In the case of TAAATCACGTGTGAGG, the “relative binding free energy” value was 0.02 kcal/mol.
In the case of TTTATCACGTGCGGAG, the “relative binding free energy” value was 0.22 kcal/mol.
With GGGACCACGTGTTTTG the “relative binding free energy” value was -0.05 kcal/mol.
AGGTTCACGTGGCGCG was tested, and the “relative binding free energy” value was 0.17 kcal/mol.
With ACTAACACGTGGGGGA the “relative binding free energy” value was 0.06 kcal/mol.
For ATATGCACGTGGGGTT, the “relative binding free energy” value was -0.26 kcal/mol.
With TTCTGCACGTGGGGGC the “relative binding free energy” value was -0.18 kcal/mol.
In the case of ATGTTCACGTGTGAGA, the “relative binding free energy” value was 0.36 kcal/mol.
With TTGTGCACGTGTCTAG the “relative binding free energy” value was -0.12 kcal/mol.
In the case of AGTCGCACGTGGGTGT, the “relative binding free energy” value was -0.16 kcal/mol.
For GGGAGCACGTGGATGC, the “relative binding free energy” value was -0.06 kcal/mol.
With CGGGGCACGTGCAGGG the “relative binding free energy” value was -0.1 kcal/mol.
TAGTGCACGTGATTGC was tested, and the “relative binding free energy” value was 0 kcal/mol.
For GGGAACACGTGTTGGG, the “relative binding free energy” value was 0.11 kcal/mol.
In the case of GTTAGCACGTGGGCTA, the “relative binding free energy” value was -0.13 kcal/mol.
For CATTGCACGTGTGTGC, the “relative binding free energy” value was -0.03 kcal/mol.
With TTTAGCACGTGTAGGA the “relative binding free energy” value was -0.09 kcal/mol.
With GGTGGCACGTGCGGCA the “relative binding free energy” value was -0.2 kcal/mol.
For TGTTACACGTGATGTC, the “relative binding free energy” value was 0.27 kcal/mol.
For CGTGGCACGTGTGGCA, the “relative binding free energy” value was -0.17 kcal/mol.
GAGGACACGTGTGCGG was tested, and the “relative binding free energy” value was 0.12 kcal/mol.
In the case of GGGGGCACGTGCGAGC, the “relative binding free energy” value was -0.2 kcal/mol.
TCTATCACGTGGAGTG was tested, and the “relative binding free energy” value was 0.2 kcal/mol.
In the case of TTAAGCACGTGAATCG, the “relative binding free energy” value was 0.29 kcal/mol.
In the case of ACTAGCACGTGGTAGT, the “relative binding free energy” value was -0.24 kcal/mol.
In the case of ATTTACACGTGCGTTG, the “relative binding free energy” value was -0.04 kcal/mol.
With GGTTTCACGTGGGACG the “relative binding free energy” value was 0.3 kcal/mol.
ATAAGCACGTGTTGTT was tested, and the “relative binding free energy” value was -0.11 kcal/mol.
In the case of GGAGTCACGTGTGTAA, the “relative binding free energy” value was 0.1 kcal/mol.
With GGGCTCACGTGTGAGT the “relative binding free energy” value was 0.4 kcal/mol.
